# Out of some 310,000 compounds screened, about 2,200 (0.71%) showed an effect of 50% or more. The effect is printed as a negative number. Some of the results follow.
# Target: human ether-à-go-go-related gene (hERG) potassium channel (human, UniProt Q12809)
# Assay: primary screen, population patch clamp on CHO cells stably expressing hERG
# human ether-à-go-go-related gene (hERG) potassium channel, sequence (Q12809 whole entry, looked up): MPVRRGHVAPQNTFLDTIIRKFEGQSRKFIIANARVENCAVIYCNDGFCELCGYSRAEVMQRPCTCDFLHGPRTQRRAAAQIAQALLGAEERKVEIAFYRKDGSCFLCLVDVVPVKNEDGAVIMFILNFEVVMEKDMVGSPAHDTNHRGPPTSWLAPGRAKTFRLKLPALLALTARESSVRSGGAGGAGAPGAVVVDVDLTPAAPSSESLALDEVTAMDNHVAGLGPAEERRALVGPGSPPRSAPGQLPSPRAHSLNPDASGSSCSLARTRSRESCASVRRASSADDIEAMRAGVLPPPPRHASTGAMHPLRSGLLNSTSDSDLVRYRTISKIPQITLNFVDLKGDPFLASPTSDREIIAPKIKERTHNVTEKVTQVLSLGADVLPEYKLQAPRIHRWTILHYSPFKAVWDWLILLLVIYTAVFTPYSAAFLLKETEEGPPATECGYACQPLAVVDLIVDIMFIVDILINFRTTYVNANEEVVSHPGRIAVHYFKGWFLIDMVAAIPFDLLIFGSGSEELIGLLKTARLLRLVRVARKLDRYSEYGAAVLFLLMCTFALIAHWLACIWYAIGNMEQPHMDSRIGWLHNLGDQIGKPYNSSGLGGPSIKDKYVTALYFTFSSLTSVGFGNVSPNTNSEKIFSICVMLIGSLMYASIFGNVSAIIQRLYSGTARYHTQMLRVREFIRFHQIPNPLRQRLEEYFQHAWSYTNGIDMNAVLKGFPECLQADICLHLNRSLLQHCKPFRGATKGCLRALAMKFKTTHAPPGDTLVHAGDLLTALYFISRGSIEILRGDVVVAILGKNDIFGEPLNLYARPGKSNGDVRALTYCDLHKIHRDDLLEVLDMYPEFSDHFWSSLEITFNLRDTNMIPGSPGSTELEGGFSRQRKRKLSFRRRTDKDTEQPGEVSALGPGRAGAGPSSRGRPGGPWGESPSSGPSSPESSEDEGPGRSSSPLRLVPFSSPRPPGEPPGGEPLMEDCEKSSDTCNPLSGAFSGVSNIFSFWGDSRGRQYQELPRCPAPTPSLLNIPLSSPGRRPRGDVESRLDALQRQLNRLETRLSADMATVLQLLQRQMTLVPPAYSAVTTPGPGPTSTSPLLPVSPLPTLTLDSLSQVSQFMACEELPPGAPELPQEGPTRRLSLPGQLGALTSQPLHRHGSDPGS
row,SMILES,"hERG current change (%, negative = inhibition) at 1uM"
1,COc1cccc(/C=N/NC(=O)N/N=C/c2cccc(OC)c2O)c1O,15.7%
2,COc1ccc(CCNC(=O)Nc2cc(F)c(F)cc2Cl)cc1OC,23.3%
3,CCOc1ccc(C(=O)NCCc2ccccc2)cc1,14.2%
4,CCOP(=O)(OCC)C(Nc1ccc(OC)cc1)c1ccco1 (centres unmarked),-2.96%
5,CCCCNC(=S)N(C)/N=C/c1ccc(OCC(=O)Nc2ccc(OC)cc2)c(OC)c1,3.26%
6,O=C(COc1ccccc1)NC1CCSC1=O (centres unmarked),-42%
7,NS(=O)(=O)c1ccc(CCNC(=O)C2CCN(S(=O)(=O)c3cnc[nH]3)CC2)cc1,-3.52%
8,CC(C)OP(=O)(OC(C)C)C(Nc1ccccn1)c1ccc(F)cc1 (centres unmarked),17.4%
9,CNC(=O)N1c2ccccc2CCc2ccccc21,15.3%
10,CCCC(=O)Nc1ccc(N2CCN(C(=O)c3cc4ccccc4o3)CC2)cc1,3.54%
11,Cc1cc(N/N=C/c2ccc3c(c2)OCO3)nc2ccccc12,13.8%
12,Cc1ccc(C(=O)NNC(=O)CCC(=O)Nc2cc(C)on2)cc1,11.8%
13,O=C(COc1coc(CN2CCCc3ccccc32)cc1=O)Nc1cccc([N+](=O)[O-])c1,-14.1%
14,CCOC(=O)c1c(CN(C)C)n(C)c2c(O)c(N=NC(N)=O)c3ccc(Br)cc3c12.Cl,7.1%
15,Cn1c(=O)c2c(nc(SCC(=O)c3ccccc3F)n2C)n(C)c1=O,6.42%
16,COc1ccc(-c2cc3cccc(OC)c3oc2=O)cc1,14.6%
17,Cc1ccccc1NC(=O)OCc1ccccc1,9.41%
18,O=C(NC1CCCc2ccccc21)c1cccnc1 (centres unmarked),7.88%
19,C=CCc1cc(Cl)ccc1OCCN1CC(C)OC(C)C1.O=C(O)C(=O)O (centres unmarked),-11.1%
20,COc1ccc(-c2cc(=O)oc3c(C)c(OCC(=O)N(C)C)ccc23)cc1,6.74%
21,COc1ccccc1-n1nnnc1SCC(=O)NCC1CCCO1 (centres unmarked),12%
22,CCC(=O)NC(=S)Nc1ccc(-c2nc3ccccc3s2)cc1,-2.83%
23,O=C1OCCC1NC1=NCCC1 (centres unmarked),2.69%
24,Cc1noc(C)c1S(=O)(=O)N1CCC(C(=O)NCCc2ccc(S(N)(=O)=O)cc2)CC1,13.1%
25,Nc1nncn1C(=O)CCCOc1ccc(Cl)cc1Cl,5.93%
26,Cc1ccc(Nc2nnc(SCC(=O)c3cc4ccccc4o3)s2)cc1C,8.59%
